Source: PubChem BioAssay AID488969 (Vanderbilt High Throughput Screening Facility, 2010)
In all, about 110,000 compounds were measured (“z-score”: median about -0.1, highest 2% from about 2 on). Some of the results follow. Calls of active or inactive are those of the source.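 Rule for the calls: active = z-score in the third read window above 3 or below -3; inactive = the rest.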

The molecules below were run against Metabotropic glutamate receptor 8 (Rattus norvegicus) (UniProt P70579) (assay: mGluR8 Gi/Go-coupled signaling modulation – cell-based, rat, thallium flux, HTS, primary screen (AID 488969)). Conditions: HEK293 rat mGluR8, GIRK (G protein-gated inwardly rectifying potassium channel) thallium flux, FluoZin2; at 10 µM; stronger effect = higher value; submaximal glutamate (EC20) added with thallium.
Chain of UniProt P70579 (P70579 whole entry, looked up): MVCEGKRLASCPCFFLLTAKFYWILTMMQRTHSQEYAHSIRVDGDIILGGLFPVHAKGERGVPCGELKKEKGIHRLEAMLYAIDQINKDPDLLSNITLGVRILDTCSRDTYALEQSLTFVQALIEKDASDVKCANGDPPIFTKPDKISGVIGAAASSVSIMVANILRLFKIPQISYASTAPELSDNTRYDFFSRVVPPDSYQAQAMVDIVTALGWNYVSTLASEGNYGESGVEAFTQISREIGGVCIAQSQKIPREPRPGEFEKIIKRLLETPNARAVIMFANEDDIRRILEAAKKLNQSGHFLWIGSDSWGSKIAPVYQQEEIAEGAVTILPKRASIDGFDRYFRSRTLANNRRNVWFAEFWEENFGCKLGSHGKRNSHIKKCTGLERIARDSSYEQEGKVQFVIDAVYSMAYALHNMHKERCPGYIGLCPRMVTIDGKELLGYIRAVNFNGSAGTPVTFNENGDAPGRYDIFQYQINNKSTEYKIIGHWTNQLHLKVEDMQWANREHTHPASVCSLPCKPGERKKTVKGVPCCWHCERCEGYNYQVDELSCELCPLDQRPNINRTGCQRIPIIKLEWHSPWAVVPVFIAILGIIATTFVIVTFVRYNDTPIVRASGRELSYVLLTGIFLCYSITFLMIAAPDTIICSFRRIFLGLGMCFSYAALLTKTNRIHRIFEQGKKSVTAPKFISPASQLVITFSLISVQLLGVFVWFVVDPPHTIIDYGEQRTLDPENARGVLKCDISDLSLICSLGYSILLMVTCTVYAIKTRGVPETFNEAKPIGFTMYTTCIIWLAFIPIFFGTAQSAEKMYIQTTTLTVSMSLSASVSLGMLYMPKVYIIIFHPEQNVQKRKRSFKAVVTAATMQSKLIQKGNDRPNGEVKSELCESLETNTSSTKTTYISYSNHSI
Work on NC(=O)c1ccccc1NC(=O)/C=C/C(=O)O yielded a z-score of 0.214.
In the case of CCSc1nc2sc3c(c2c(=O)[nH]1)CCc1ccccc1-3, the z-score is reported as -0.0881.
Molecule CCN(CCN(C)C)C(=O)Cn1ncc2c1-c1cc(C)ccc1OC2 has a z-score of -0.602.
In the case of CCN1CCN(C(c2cccs2)C(C)NC(=O)c2cccnc2)CC1 (stereo unspecified), the z-score is reported as 0.292.
COc1ccccc1C(=O)Nc1nnc(C)s1 was tested, and the z-score was -0.136.
With CCSc1nnc(NC(NC(=O)c2ccco2)(C(F)(F)F)C(F)(F)F)s1 the z-score was -0.0439.
COCCCNC(=O)CCc1ccc(S(=O)(=O)Nc2ccc(C)cc2)cc1 was tested, and the z-score was 0.805.
CCc1ccc(CN(C)CC(=O)Nc2ccccc2[N+](=O)[O-])cc1 was tested, and the z-score was -0.428.
With COC(=O)c1c(C)c2c(C)cc3ccccn3c-2c1C(=O)OC the z-score was -0.152.
In the case of Cc1cccc(NC(=O)C2CC(O)CN2C(=O)OCc2ccccc2)c1 (stereo unspecified), the z-score is reported as -0.262.
Work on Cc1ccc(N(CC(O)CN(C)C)S(=O)(=O)c2ccccc2)cc1 (stereo unspecified) yielded a z-score of 1.2.
Work on O=C(CCCC(=O)N(CC(=O)NC1CCCCC1)Cc1ccccc1)Nc1ccccn1 yielded a z-score of -0.717.
For Cc1csc(NC(=O)CSc2nncn2C)n1, the z-score was 0.18.
COc1cc2nc(N3CCNCC3)nc(N)c2cc1OC showed a z-score of 0.304.
CCCCn1nc2cc(C(=O)NCc3cc(C(F)(F)F)cc(C(F)(F)F)c3)ccc2c1OC showed a z-score of -0.00486.
For COc1cnn(-c2ccccc2)c(=O)c1SCc1ccc(Cl)c(Cl)c1, the z-score was -0.358.
Work on CC(CN1CCOCC1)c1ccccc1 (stereo unspecified) yielded a z-score of 1.96.
Molecule Cc1cc(Cl)cc(Cl)c1OCCOc1cccc2cccnc12 has a z-score of -0.157.
With O=C(NCCCNC(=O)C(F)(F)C(F)F)C(F)(F)C(F)F the z-score was -0.142.
Cc1cc(C)c(OCC(=O)Nc2nnn(C)n2)c(Br)c1 gave a z-score of -0.637.
With COc1ccc(C(=O)/C=C/c2cccs2)c(OC(=O)N2CCOCC2)c1 the z-score was -0.0631.
For C/C(=N\NC(=O)Cc1cccn1C)c1cccc2ccccc12, the z-score was -0.3.
Molecule O=C(NCc1ccco1)c1cccn2c(=O)c3cc4ccccc4cc3nc12 has a z-score of 0.148.
With O=C(CCCNC(=O)/C(=C/c1ccc(F)cc1)NC(=O)c1ccccc1)OCc1ccccc1 the z-score was -1.02.
With Nc1cc(-c2nc3ncccc3o2)ccc1Cl the z-score was -0.0537.
With COc1ccc(S(N)(=O)=O)cc1C(=O)NCCCN1CCN(c2cccc(Cl)c2)CC1 the z-score was -1.11.
In the case of Cc1sc2c(c1C)CN(Cc1ccncc1)CN2C(=O)c1ccco1, the z-score is reported as -0.32.
In the case of CCN(CC(=O)Nc1cccc(OC)c1)C(=O)c1ccc(C)s1, the z-score is reported as -0.139.
In the case of COc1ccc(OC)c(C2CC(=O)Nc3cc(OC)c(OC)c(OC)c32)c1 (stereo unspecified), the z-score is reported as -0.23.
COc1ccc(/C=C(\C#N)C(=O)OCC(=O)NCc2ccc(Cl)cc2)cc1 showed a z-score of -0.178.
Molecule O=c1c(/C=C(\O)c2ccccc2)nc2ccccc2n1-c1ccccc1 has a z-score of -0.452.
Molecule O=C(C1CCCN(S(=O)(=O)c2cccnc2)C1)N1CCN(c2ccccn2)CC1 (stereo unspecified) has a z-score of -0.29.
With CC1CC(=O)C=C(O)C1C(=O)OC(C)(C)C (stereo unspecified) the z-score was 0.0252.
For COc1cc2c3c(c1OC)C1(C=CC(=NO)C=C1)CC3N(C(C)=O)CC2 (stereo unspecified), the z-score was -0.0199.
With CS(=O)(=O)N(CCc1ccccc1)CC(=O)NCc1ccc2c(c1)OCO2 the z-score was active: -7.82.
With O=C(CN(CCc1ccccc1)S(=O)(=O)c1ccc(Cl)cc1)N/N=C/c1ccc2c(c1)OCO2 the z-score was -0.644.
Molecule COc1ccc(N2CCN(c3oc(-c4ccccc4OC)nc3C#N)CC2)cc1 has a z-score of -1.28.
CCN(C(=O)CN1CCN(c2ccccc2OC)CC1)c1c(N)n(Cc2ccccc2)c(=O)[nH]c1=O showed a z-score of 0.391.
With CC(=O)NCC(=O)OC(C)C(=O)Nc1ccc(C(C)=O)cc1 (stereo unspecified) the z-score was 0.409.
COc1ccc(NC(=O)CSc2nnc(-c3ccccc3C)n2C)cc1 showed a z-score of -0.332.
Work on Cc1ccc(C(=O)NCC2CCCO2)o1 (stereo unspecified) yielded a z-score of 0.996.
With CC(=O)c1ccc(N2CCN(c3ccc(C(F)(F)F)cn3)CC2)cc1 the z-score was 0.079.
With O=C(Cc1cccs1)N1CCCC(c2nc(-c3ccc(S(=O)(=O)N4CCCC4)cc3)no2)C1 (stereo unspecified) the z-score was -0.767.
CC(/C=N/NC(=O)CSc1ccccn1)=C\c1ccc(C(C)C)cc1 showed a z-score of -0.206.
Clc1ccccc1OCc1nc(-c2ccc(Br)o2)no1 was tested, and the z-score was -0.648.
For COc1ccc(CC(=O)Nc2nc3n(n2)C(c2ccccc2)CC(=O)N3)cc1OC (stereo unspecified), the z-score was 0.131.
CCCn1c(C(C)NC(=O)c2ccccc2)nc2ccccc21 (stereo unspecified) gave a z-score of -0.0102.
N=c1n(CC(=O)c2ccc([N+](=O)[O-])cc2)c2ccccc2n1Cc1ccc(Cl)cc1 showed a z-score of 0.351.
Clc1cccc(N=C2NN=C(c3ccc4c(c3)OCCO4)CS2)c1 was tested, and the z-score was 0.489.
In the case of CS(=O)(=O)N1CCc2ccccc2C1, the z-score is reported as 0.166.
In the case of C=CC[n+]1c(-c2ccc(OC)c(OC)c2)csc1NNC(=O)Nc1ccccc1, the z-score is reported as -0.698.
For CC(C)(C)N/N=C1\CC(c2ccccc2)Oc2ccccc21 (stereo unspecified), the z-score was 0.00592.
With COc1ccc(CNC(=O)CCCn2c(SCC#N)nc3cc4c(cc3c2=O)OCO4)cc1 the z-score was -0.105.
Cn1c(=O)c2c(ncn2CC(=O)N/N=C/c2ccc(Br)s2)n(C)c1=O showed a z-score of 2.47.
CNC(=O)c1cn(-c2ccccc2)c(=O)c2ccccc12 showed a z-score of -0.122.
With COCCNc1oc(COc2cccc(C)c2)nc1C#N the z-score was 0.0473.
Cc1ccccc1NC(=O)COC(=O)CN1C(=O)NC(C)(C)C1=O showed a z-score of -0.186.
N#CCOc1ccc(C2=NO[C@@H]3[C@@H]4C[C@@H]([C@H]5C(=O)N(c6ccc7c(c6)OCO7)C(=O)[C@@H]45)[C@H]23)cc1 showed a z-score of -0.00301.
CC(C)NC(=O)CSc1nc(N)c(NC(=O)c2ccccc2F)c(=O)[nH]1 gave a z-score of -0.204.
COc1nc(/C(N)=N/O)nc(N2CCCCC2)n1 was tested, and the z-score was -0.0591.
CC(c1ccccc1)n1cc(C(=O)NCCN2CCOCC2)nn1 (stereo unspecified) was tested, and the z-score was 0.475.
Cc1occc1C(=O)N1CCN(c2ccc(Cl)c(Cl)c2)CC1 was tested, and the z-score was 1.37.
c1ccc(Nc2c(-c3ccco3)nc3ccccn23)cc1 gave a z-score of -0.458.
For CCc1ccc(CN2CC(C(=O)O)CC2=O)cc1 (stereo unspecified), the z-score was -0.0355.
Cc1cccc(C)c1NC(=O)C1(NC(=O)c2cnccn2)CCCCC1 was tested, and the z-score was -0.368.
For Cc1nc(Cl)c(C#N)cc1-c1ccccc1, the z-score was 0.358.
Work on CC(=O)c1cccc(N=C2NC(=O)CS2)c1 yielded a z-score of 0.169.
With CC1=C(C(=O)OC(C)C)C(c2cccs2)n2ncnc2N1 (stereo unspecified) the z-score was -1.01.
For CC1CCN(CCCCOc2ccc(C(=O)c3ccccc3)cc2)CC1, the z-score was 2.47.
Work on COc1cc(/C=N/NC(=O)CCN2CCN(c3ccccc3)CC2)cc(OC)c1OC yielded a z-score of -0.254.
With COc1cc(C=O)ccc1OCCCOc1ccccc1C(=O)O the z-score was -0.241.
